In the supplement of paper PMC11417369:
The list shows a part of the results.

What follows are sequences tested on PfHDP1 homeodomain (GST-tagged) (assay: gcPBM binding intensity (ln(normalized median fluorescence intensity)); higher = stronger DNA binding).
Method in brief: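 An Agilent 4 × 180k array of primer-extended double-stranded 36-bp intergenic genomic probes, with negative controls, was incubated for 1 h with GST-tagged P. falciparum DNA-binding domains expressed in E. coli. Alexa488 anti-GST antibody detected bound protein, scanned at 488 nm. Binding intensity is the highest Masliner-normalised natural-log median intensity across replicate spots of either probe orientation.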

Row | Sequence | gcPBM binding intensity (ln)
1 | CGTATGAAACATATATGTACTTATAAAAATATAACC [XGTACX_site7539] | 6.56
2 | AAATCACCTTAAGAACGTACAAACAGAAAAAAATTA [XGTACX_site4623] | 6.65
3 | TTTATTATATTTATATGTACTTATATAATATATGCA [XGTACX_site1906] | 6.6
4 | CTTATGTGTATAAGTAGTACTAAATTAAAATAATAT [XGTACX_site2681] | 6.57
5 | TTATAAATATAATATTGTACAAAATTTTAACATGTC [XGTACX_site5259] | 6.57
6 | TTATTTACCATCTCTACACACAAAAATTGATGTAGA [CACACA_site2811] | 6.5
7 | ATATGTATTAAGTGTACACATATAATGTATTTTGTT [CACACA_site4177] | 7.05
8 | TCATAATGAAAACAAGCACACATACATAAAATAAAA [CACACA_site9069] | 6.89
9 | TAAATTATATTATGCACACTTAAAAATATATTTAAC [CACACA_site3512] | 9.29
10 | AAAATAAAAAATATAACACACAATAAATATATATAT [CACACA_site1926] | 8.22
11 | TATACAAAATAACTAGCACACATATGTATAAACATA [CACACA_site9236] | 6.58
12 | TTTTAACTTTTATATTGTACGTTGTTTATTTTATTT [XGTACX_site7504] | 6.86
13 | ATTTCCTGGCTACTGTGTACTGACCTCCAGACTGCT [XGTACX_site2005] | 6.44
14 | ATAATCATTTGGATATTCACAATATTTAAAATTAAA [CACACA_negctrl_site909] | 6.2
15 | GAAAAAAAAAAAAAAAAAAAAAAATTCATTTTTTTT [XGTACX_negctrl_site54] | 5.61
16 | CATAAAAATATTTTCTGTACATATTCATATGACGTT [XGTACX_site3406] | 6.73
17 | TATACATATATAATATGTACATATATTTTTTTTTAA [XGTACX_site2938] | 6.13
18 | ATAAATAAAATTAGGTGTACTTTAATTAAAGAAAAT [XGTACX_site3319] | 6.75
19 | AGGTTCCCAAAATGCACACCAATGAAATTATTTATT [CACACA_site553] | 10.2
20 | ATAAATATTGGGTGCACACACATAATATATATATAT [CACACA_site2272] | 10.5
21 | AAAAAAATATAGATCTGTACATATATAAATATATGT [XGTACX_site511] | 6.21
22 | TCTCTAATTTTTAATACACACAAATAAATAAATAAA [CACACA_site216] | 6.62

Row | Sequence | gcPBM binding intensity (ln)
23 | ATATATGTTAATAATTGTACAAATCGATAATATATA [XGTACX_site5076] | 7.3
24 | AATGTATATTATTGCACACATATATAAAATTATGCT [CACACA_site1096] | 10.5
25 | ATTTGTGAATATATTCGGTGAACTTTGTTAACACAT [XGTACX_negctrl_site445] | 6.89
26 | ATCTCTATGATATATACACACAAATATACAAAAAAA [CACACA_site6605] | 6.92
27 | TATTATATTTGTATGTGTACTTATATGGTTGTAATA [XGTACX_site4548] | 6.47
28 | ATGGAAAAAAAGCATTGTACATTTAAAGAAAAACAG [XGTACX_site6639] | 6.73
29 | AACGAAAACACTACGTGTACCAAATGTCCTGCCAAC [XGTACX_site5735] | 6.14
30 | AAATATTATCAAACATAAATTATTTTTATCCGTATA [CACACA_negctrl_site771] | 6.12
31 | ATATATATATATATGTGTACACAAAAAATATTATAT [XGTACX_site5741] | 9.26
32 | ATTCAAAAAAAATCAACACACAGTTACATAGCTCAA [CACACA_site2234] | 6.46
33 | ATTCCATAAGTAAACACACAAATGCCAAAATTTTAT [CACACA_site7491] | 6.51
34 | GCACATATATATGAAACACACATGGAAACATCTCTT [CACACA_site3966] | 6.55
35 | AATCTAATTAAAATCACACATATATTCGTCGTAATA [CACACA_site5855] | 6.05
36 | AAAAAATTAACGAGTGCACACATATTTAGATAAAAT [CACACA_site8958] | 10.7
37 | ATATATATATATATAACACACGTGTATTTATCTGTA [CACACA_site5922] | 9.21
38 | TATGTGCACCCATATACACACACAAATACAATGATA [CACACA_site8295] | 10.7
39 | AATTCATATACAAAAAGTACAAACGAAAAATAAAAA [XGTACX_site2900] | 6.62
40 | GTTATATAAAAATATTGTACATTCTATATAAAGTCA [XGTACX_site4418] | 6.32
41 | ATGTTTTATATTATTAATATATATATATATATATAT [CACACA_negctrl_site331] | 8.97
42 | AAAAAAAAAAAAAAATGTACATATAAATAAATATAT [XGTACX_site7248] | 6.39
43 | ACAACATAGAGGGGCACACACATATATACATAAAAA [CACACA_site6954] | 7
44 | TAATATCCATATAAAACACACATCAAGGTTGTTAAC [CACACA_site175] | 6.34

Row | Sequence | gcPBM binding intensity (ln)
45 | AAAAAAAAAAAAAACACACACATGCACCTCATATTA [CACACA_site556] | 7.77
46 | TTTATTTATTATTAAAGTACTAAATTATATTATTAT [XGTACX_site2565] | 5.95
47 | AGGCATAATTAAAAGTAACAATTATGGAAACGGAGT [GTGCAC_negctrl_site623] | 6.83
48 | ATTTTTGTAATTATTTGTACACATTTATTTATGTGT [XGTACX_site1864] | 6.76
49 | ACTTATTTCGATATGTGTACTTAATATATATATTTA [XGTACX_site6616] | 6.44
50 | AAAAATATTTTGGTTTGTACATATATTTTTACAATA [XGTACX_site8691] | 6.31
51 | ACAAATAAAAATATTACACACACTATTATATTGATA [CACACA_site1494] | 6.4
52 | TTATATTATATATATGTGCACATTTTTAAACTTGGA | 10.7
53 | AAATATTTATATGTTACACACTGTTGATAATTTTCT [CACACA_site1347] | 6.33
54 | GGAAGATGAAAAATAAAGCATGTGCTGTACAAACGA [CACACA_negctrl_site1625] | 6.89
55 | AGACCTTTAATTTGTGTGCACATAATTAGTGTACAT [GTGCAC_site9434] | 10.7
56 | ATTAAAAAAAAAAAAAGTACTTATAATTATACTCGT [XGTACX_site4852] | 6.35
57 | TTCAAATTGTTTATATGTACTTATAAAAATTGTCTG [XGTACX_site977] | 6.34
58 | AATTATACTTCCTTCACACAGTTACATCATATATTA [CACACA_site5942] | 6.94
59 | ATTCACATACATTACTTACACACCATATTAATATAT [CACACA_site459] | 7.49
60 | TAAAAAATAAGATATACACACATATATATATATATA [CACACA_site2324] | 9.35
61 | AAAAAAAAAAAAAAGGAACACACAAGTAACAATAAA [CACACA_site8792] | 6.5
62 | TAACATATTAATAACATATTTATAATATATTAATAA [TGCATGCA_negctrl_site243] | 5.86
63 | TGACCGTTTTAAGAGTGTACAAAAAAAAAAAAAAAA [XGTACX_site4141] | 6.07
64 | TATTCTATATAATAATGTACGTGATTTAAATTTTCA [XGTACX_site6650] | 6.42
65 | AAAATCGTGTTCTGAATACACACTAATACAAAGTTG [CACACA_site3985] | 6.42
66 | AAAAATACCTGAATATGTACATATGATCAATGGGCC [XGTACX_site887] | 6.94

Row | Sequence | gcPBM binding intensity (ln)
67 | ATTCATATATATTATACACACACATATATAAATATA [CACACA_site8228] | 6.98
68 | AAATAAAATAAAAACATGCACACTTTATTTTTTTTA [CACACA_site2800] | 7.69
69 | AGAAGTTTAAAAAGCACACAAAAAAAAAAAAAAAGA [CACACA_site3309] | 6.08
70 | TAAAAATATAAATTTTGTACGTAAAAAATGGTTCTT [XGTACX_site1506] | 6.38
71 | TATTCCTTATTATAATTCTTAAATAAAAAAAAAAAA [TGCATGCA_negctrl_site45] | 6.28
72 | TAGGATTTTTAGTTTATTGTAACTATTATTTTATTT [CACACA_negctrl_site829] | 6.21
73 | ATATATAAACTGAAGGGTACAATGAAAAAAGAACTT [XGTACX_site7219] | 6.81
74 | CCCATTATTGTTGGGGGTACAATTTTGAATATATAT [XGTACX_site2227] | 7.74
75 | CATATTTGTTGACACACACACATATTTATATAAATA [CACACA_site7648] | 6.9
76 | GGGAGGATATTACACAGTACCCAGAAAATCTACGGA [XGTACX_site2551] | 6.81
77 | TTTATATGTTTAAAATGTACATGTGGTAAAAATTTT [XGTACX_site5907] | 6.89
78 | GTGTGGTTACAGACACGAACACATTTTTTAAATATT [CACACA_negctrl_site83] | 6.57
79 | TATATATATTATATAGTGCATTGAAGAAGGGGATTT | 7.74
80 | GTAAGAAAGAAAGGAAGTACGTAAGAAAGTAAGAAC [XGTACX_site1239] | 6.84
81 | TTTTTTTTTCTGTGAGTGCATGTAATAAAATAAATT [GTGCAC_site9740] | 7.42
82 | ATATATTTATAATACACATGCAATGATATAATATAT [TGCATGCA_site20] | 6.55
83 | CATATATACATATATACACACATATATATATATATA [CACACA_site645] | 9.38
84 | CATTCAAACAAAAAAAGTACTCATCACATAATATAT [XGTACX_site1251] | 6.61
85 | GCAAAATATTTAAAATAATATATGTGTATATTTTTA [GTGCAC_negctrl_site149] | 6.38
86 | TTTATATTGTTTTATTGTACATATATATTTATACAT [XGTACX_site6821] | 6.79
87 | AAAAAAAAAAAAAAACTTACGATTTTAAAAAGATGG [GTGCAC_negctrl_site291] | 6.27
88 | GAAATGTACAAATACGTACACACATATATATATATA [CACACA_site1541] | 9.28
